{
  "source": "paper PMC4336329",
  "about": "(PLoS ONE, 2015)",
  "note": "In all, about 310,000 compounds went through this assay and about 14,000 (4.5%) showed an effect of 50% or more. The effect is printed as a negative number. Some of the results follow.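 Also: peak tail current of the secondary pulse compared with the same well before compound.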",
  "data": [
    {"molecular_target": "human ether-à-go-go-related gene (hERG) potassium channel (human, UniProt Q12809)", "sequence (Q12809 whole entry, looked up)": "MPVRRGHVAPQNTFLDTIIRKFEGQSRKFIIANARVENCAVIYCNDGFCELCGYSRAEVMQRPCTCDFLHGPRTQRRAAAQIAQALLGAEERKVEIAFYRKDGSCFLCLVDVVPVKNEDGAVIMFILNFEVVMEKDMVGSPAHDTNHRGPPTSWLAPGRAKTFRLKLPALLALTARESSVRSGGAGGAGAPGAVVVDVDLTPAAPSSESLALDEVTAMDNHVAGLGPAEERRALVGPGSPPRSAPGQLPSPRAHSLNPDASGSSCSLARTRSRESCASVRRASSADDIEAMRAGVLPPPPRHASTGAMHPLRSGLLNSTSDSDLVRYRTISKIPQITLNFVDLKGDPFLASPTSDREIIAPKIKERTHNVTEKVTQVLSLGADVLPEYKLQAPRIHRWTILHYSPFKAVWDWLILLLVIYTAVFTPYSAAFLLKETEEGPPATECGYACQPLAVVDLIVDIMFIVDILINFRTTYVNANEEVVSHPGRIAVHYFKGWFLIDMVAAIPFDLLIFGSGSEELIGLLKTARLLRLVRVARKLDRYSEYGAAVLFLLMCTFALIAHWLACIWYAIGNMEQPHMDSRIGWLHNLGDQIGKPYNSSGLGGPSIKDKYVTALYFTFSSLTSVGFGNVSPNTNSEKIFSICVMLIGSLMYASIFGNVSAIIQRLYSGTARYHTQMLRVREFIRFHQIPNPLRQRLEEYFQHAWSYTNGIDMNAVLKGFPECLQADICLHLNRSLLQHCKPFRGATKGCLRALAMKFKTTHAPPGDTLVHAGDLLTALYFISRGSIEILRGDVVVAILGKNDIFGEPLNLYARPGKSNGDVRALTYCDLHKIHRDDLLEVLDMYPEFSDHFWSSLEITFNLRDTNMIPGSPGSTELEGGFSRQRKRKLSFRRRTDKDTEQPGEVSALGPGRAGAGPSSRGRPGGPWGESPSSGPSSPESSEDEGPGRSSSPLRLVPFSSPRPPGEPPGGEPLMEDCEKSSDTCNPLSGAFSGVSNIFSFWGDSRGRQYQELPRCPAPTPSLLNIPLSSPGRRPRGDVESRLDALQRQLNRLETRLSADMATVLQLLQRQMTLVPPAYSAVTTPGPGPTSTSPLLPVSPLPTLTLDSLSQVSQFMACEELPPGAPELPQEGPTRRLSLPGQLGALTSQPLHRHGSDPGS", "experiment": "primary screen, population patch clamp on CHO cells stably expressing hERG", "units": {"hERG current change (%, negative = inhibition) at 10uM": "%"}, "values": [
      {"smiles": "CC(C)(C)NC(=O)CN(Cc1cccs1)C(=O)CNS(=O)(=O)c1ccccc1", "hERG current change (%, negative = inhibition) at 10uM": 24.2},
      {"smiles": "CC(C)(C)NC(=O)CSCc1ccc(Br)cc1", "hERG current change (%, negative = inhibition) at 10uM": -4.63},
      {"smiles": "COc1ccc(S(=O)(=O)N2CCCCC2)cc1NC(=O)c1cncc(Br)c1", "hERG current change (%, negative = inhibition) at 10uM": 5.32},
      {"smiles": "COc1ccc(-c2cc(C(=O)Nc3c(C)nn(Cc4ccccc4Cl)c3C)no2)cc1", "hERG current change (%, negative = inhibition) at 10uM": 15},
      {"smiles": "O=C(COC(=O)C1CCC(=O)N1)Nc1ccc(Br)cc1", "note": "(stereo not drawn)", "hERG current change (%, negative = inhibition) at 10uM": 12},
      {"smiles": "CC(=O)c1c(NC(=O)c2ccccc2)[nH]c(-c2ccccc2)nc1=S", "hERG current change (%, negative = inhibition) at 10uM": 2.15},
      {"smiles": "Cc1cc(C(=O)NC(=S)Nc2ccccc2N2CCOCC2)ccc1[N+](=O)[O-]", "hERG current change (%, negative = inhibition) at 10uM": 12.9},
      {"smiles": "CCCN(C(=O)c1cc2c(s1)CCC2)c1c(N)n(Cc2ccccc2)c(=O)[nH]c1=O", "hERG current change (%, negative = inhibition) at 10uM": -1.61},
      {"smiles": "Cc1ccc(OCc2cc(C(=O)N(C)Cc3cnn(-c4ccccc4C)c3)no2)cn1", "hERG current change (%, negative = inhibition) at 10uM": -21.1},
      {"smiles": "COC(=O)c1ccc2c(=O)n(CCN3CCOCC3)c(SCC(=O)Nc3ccc(C)cc3)nc2c1", "hERG current change (%, negative = inhibition) at 10uM": -69.5},
      {"smiles": "Cn1c(CNC(=O)CCNC(=O)c2ccc(Br)cc2)cc(=O)n(C)c1=O", "hERG current change (%, negative = inhibition) at 10uM": 4.04},
      {"smiles": "COc1cccc2c(=O)c(C(=O)NCc3cccs3)c[nH]c12", "hERG current change (%, negative = inhibition) at 10uM": 22.1},
      {"smiles": "O=C(CO/N=C/c1ccc(OC(F)F)cc1)NCc1cccs1", "hERG current change (%, negative = inhibition) at 10uM": -62.6},
      {"smiles": "Cc1cccc(C)c1NC(=O)CN(C)C(=O)C(c1ccccc1)c1ccccc1", "hERG current change (%, negative = inhibition) at 10uM": -36.9},
      {"smiles": "CCn1c(SC2CCOC2=O)nnc1-c1ccc(Cl)cc1", "note": "(stereo not drawn)", "hERG current change (%, negative = inhibition) at 10uM": 9.29},
      {"smiles": "COc1cc2c(=O)n(CCC(=O)NCC3CCCO3)c(=O)n(CC(=O)Nc3ccc(C)cc3C)c2cc1OC", "note": "(stereo not drawn)", "hERG current change (%, negative = inhibition) at 10uM": 15.8},
      {"smiles": "O=C(CSCc1ccccc1Cl)NN1C(=O)c2ccccc2C1=O", "hERG current change (%, negative = inhibition) at 10uM": -20.8},
      {"smiles": "Cc1ccc(CNC(=S)Nc2cc(C(=O)O)ccc2C)cc1", "hERG current change (%, negative = inhibition) at 10uM": 25.9},
      {"smiles": "O=C(Nc1ccccc1)c1ccc(Nc2c([N+](=O)[O-])cc([N+](=O)[O-])c3ccccc23)cc1", "hERG current change (%, negative = inhibition) at 10uM": 6.49},
      {"smiles": "O=C(c1cccc(COCC(F)(F)C(F)F)c1)N1CCN(c2ccccc2)CC1", "hERG current change (%, negative = inhibition) at 10uM": -42.8},
      {"smiles": "COc1ccc(CNc2nc3ccccc3s2)cc1OC", "hERG current change (%, negative = inhibition) at 10uM": 3.16},
      {"smiles": "Cc1ccc(-c2nc(N)sc2-c2ccccc2)cc1C", "hERG current change (%, negative = inhibition) at 10uM": 11.6},
      {"smiles": "COc1ccc(COc2ccccc2C(=O)NCc2ccccc2)cc1F", "hERG current change (%, negative = inhibition) at 10uM": 26.4},
      {"smiles": "Cc1sc2ncn(CC(=O)NCc3ccco3)c(=O)c2c1-c1ccccc1", "hERG current change (%, negative = inhibition) at 10uM": -11.8}
    ]}
  ]
}
